# Experimental data from a collection of fitness landscapes (doi:10.1126/science.1257360).
# Some of the results follow.
# B1: PhoQ; a variant is named by its letters at X, in order, P23837 (parent)
# chain: MKKLLRLFFPLSLRVRFLLATAAVVLVLSLAYGMVALIGYSVSFDKTTFRLLRGESNLFYTLAKWENNKLHVELPENIDKQSPTMTLIYDENGQLLWAQRDVPWLMKMIQPDWLKSNGFHEIEADVNDTSLLLSGDHSIQQQLQEVREDDDDAEMTHSVAVNVYPATSRMPKLTIVVVDTIPVELKSSYMVWSWFIYVLSANLLLVIPLLWVAAWWSLRPIEALAKEVRELEEHNRELLNPATTRELTSLVRNLNRLLKSERERYDKYRTTLTDLTHSLKTPLXXLQXXLRSLRSEKMSVSDAEPVMLEQISRISQQIGYYLHRASMRGGTLLSRELHPVAPLLDNLTSALNKVYQRKGVNISLDISPEISFVGEQNDFVEVMGNVLDNACKYCLEFVEISARQTDEHLYIVVEDDGPGIPLSKREVIFDRGQRVDTLRPGQGVGLAVAREITEQYEGKIVAGESMLGGARMEVIFGRQHSAPKDE
# Variants of: B1
# Test: enrichment ratio after two sorts for PhoP signalling (ratio (wild type AVST 3.29)); higher = more functional
# Details: with PhoP (E. coli)
row,Variant,enrichment ratio
1,GCDV,≤ 0.25
2,AMIY,≤ 0.25
3,YEDG,≤ 0.25
4,EDWT,≤ 0.25
5,TAFF,0.622
6,WVTK,≤ 0.25
7,WAYH,≤ 0.25
8,WNFS,≤ 0.25
9,FDDK,≤ 0.25
10,EMDR,≤ 0.25
11,IKTF,0.442
12,PWKY,≤ 0.25
13,NLIK,≤ 0.25
14,IIWP,≤ 0.25
15,YRCI,≤ 0.25
16,AQNQ,≤ 0.25
17,NCYN,≤ 0.25
18,HCDT,≤ 0.25
19,EGQL,≤ 0.25
20,KLTF,≤ 0.25
21,TNCL,0.276
22,YHFV,≤ 0.25
23,VNEH,≤ 0.25
24,PTIW,≤ 0.25
25,FFMV,1.46

row,Variant,enrichment ratio
1,RVWN,≤ 0.25
2,FMPC,≤ 0.25
3,PQPW,≤ 0.25
4,EGDG,≤ 0.25
5,FYTH,≤ 0.25
6,INGV,≤ 0.25
7,EAYA,≤ 0.25
8,ITKR,≤ 0.25
9,NNLG,≤ 0.25
10,THDT,≤ 0.25
11,HRSL,≤ 0.25
12,VLKM,≤ 0.25
13,DTIN,≤ 0.25
14,VMCI,≤ 0.25
15,HKYE,≤ 0.25
16,WHFT,≤ 0.25
17,LMSI,≤ 0.25
18,AFHD,≤ 0.25
19,SVSI,8.37
20,QQKV,≤ 0.25
21,ARAW,≤ 0.25
22,PAFG,≤ 0.25
23,GCNR,≤ 0.25
24,GELP,≤ 0.25
25,NVYC,≤ 0.25

row,Variant,enrichment ratio
1,RYTG,≤ 0.25
2,DTHV,≤ 0.25
3,ADTR,≤ 0.25
4,VCLL,6.51
5,RWVV,≤ 0.25
6,RQHI,≤ 0.25
7,LCLR,0.551
8,LIWA,≤ 0.25
9,PYKA,≤ 0.25
10,DLGE,≤ 0.25
11,LFIQ,≤ 0.25
12,LVAW,0.304
13,DQYS,≤ 0.25
14,SCYW,≤ 0.25
15,SYQV,0.277
16,AHQN,≤ 0.25
17,NWNT,≤ 0.25
18,RVFL,≤ 0.25
19,SRFE,≤ 0.25
20,SHMY,5.5
21,QYFT,≤ 0.25
22,GIQL,0.671
23,TEKQ,≤ 0.25
24,TAPG,≤ 0.25
25,TLVP,≤ 0.25

row,Variant,enrichment ratio
1,FNLF,≤ 0.25
2,RLFC,≤ 0.25
3,THHF,≤ 0.25
4,RWQV,≤ 0.25
5,ENFE,≤ 0.25
6,WLYF,≤ 0.25
7,DMHY,≤ 0.25
8,TMWT,≤ 0.25
9,RDVD,≤ 0.25
10,TMCN,3.57
11,HFKR,≤ 0.25
12,DTYV,≤ 0.25
13,EDVA,≤ 0.25
14,KHII,≤ 0.25
15,ARLL,8.47
16,FQTL,1.49
17,SEYK,≤ 0.25
18,FMNC,≤ 0.25
19,LYYT,≤ 0.25
20,RKFR,≤ 0.25
21,MYEW,≤ 0.25
22,ETYS,≤ 0.25
23,NVST,≤ 0.25
24,IACE,≤ 0.25
25,TIMA,8.98

row,Variant,enrichment ratio
1,SSDS,≤ 0.25
2,QACY,≤ 0.25
3,PASN,2.18
4,PFWC,≤ 0.25
5,GPQL,≤ 0.25
6,FHKC,≤ 0.25
7,YPHK,≤ 0.25
8,RKGN,≤ 0.25
9,SNCW,10.3
10,DNYQ,≤ 0.25
11,HWIR,≤ 0.25
12,NVWV,≤ 0.25
13,QPTY,≤ 0.25
14,NIAV,≤ 0.25
15,IWRS,≤ 0.25
16,FCMI,33.7
17,VMHT,≤ 0.25
18,ILRL,≤ 0.25
19,TLCS,5.12
20,KKGS,≤ 0.25
21,TMMH,5.83
22,LFVK,≤ 0.25
23,MGTY,≤ 0.25
24,MHYL,≤ 0.25
25,DPLK,≤ 0.25

row,Variant,enrichment ratio
1,TQKM,≤ 0.25
2,VCPG,≤ 0.25
3,MYNA,≤ 0.25
4,TDRL,≤ 0.25
5,QIHT,≤ 0.25
6,RQRS,≤ 0.25
7,SNVH,1.27
8,AECN,6.19
9,PAMM,≤ 0.25
10,QDDT,≤ 0.25
11,QYMS,≤ 0.25
12,TEHC,22.1
13,MEWC,≤ 0.25
14,YAPM,≤ 0.25
15,SALW,1.24
16,STYR,≤ 0.25
17,KLFD,≤ 0.25
18,LGKS,≤ 0.25
19,GWHC,≤ 0.25
20,EYYC,≤ 0.25
21,QILK,≤ 0.25
22,IEFG,≤ 0.25
23,NHVM,≤ 0.25
24,PLDE,≤ 0.25
25,SMNY,3.39

row,Variant,enrichment ratio
1,YYFD,≤ 0.25
2,PQRM,≤ 0.25
3,KNLP,≤ 0.25
4,IKYF,≤ 0.25
5,HQGT,≤ 0.25
6,ETDV,≤ 0.25
7,RDFN,≤ 0.25
8,ADFA,≤ 0.25
9,FQGL,≤ 0.25
10,KWVI,≤ 0.25
11,LQNH,≤ 0.25
12,SPNF,≤ 0.25
13,TELY,15.5
14,ACIL,10.3
15,AMYC,0.507
16,KAGV,≤ 0.25
17,WEKD,≤ 0.25
18,PMCC,≤ 0.25
19,LEKQ,≤ 0.25
20,DTRN,≤ 0.25
21,MKVY,≤ 0.25
22,TSVH,11.7
23,EDTT,≤ 0.25
24,FESA,≤ 0.25
25,YHAQ,≤ 0.25

row,Variant,enrichment ratio
1,PLDW,≤ 0.25
2,KEHL,≤ 0.25
3,YRFA,≤ 0.25
4,MYDK,≤ 0.25
5,PPAK,≤ 0.25
6,EHHR,≤ 0.25
7,ITTA,≤ 0.25
8,YREF,≤ 0.25
9,NWPD,≤ 0.25
10,YPAG,≤ 0.25
11,LFAL,≤ 0.25
12,WFLP,≤ 0.25
13,TFHE,≤ 0.25
14,PHPW,≤ 0.25
15,FMQD,≤ 0.25
16,NFCR,≤ 0.25
17,FYFK,≤ 0.25
18,FFSR,≤ 0.25
19,HKRM,≤ 0.25
20,YKAK,≤ 0.25
